Results as given in paper PMC4336329 (PLoS ONE, 2015).
Out of some 310,000 compounds screened, about 14,000 (4.5%) showed an effect of 50% or more. The effect is printed as a negative number. The list shows a part of the results. Where a SMILES comes first, the peptide text is derived from it. [ ]: non-standard residue; d: D form. The star is where a group is joined. ξ: configuration not given here. Cbz = O=C(OCc1ccccc1)*; ξS = NC(CO)C(=O)O

What follows are molecules tested against human ether-à-go-go-related gene (hERG) potassium channel (human, UniProt Q12809) (assay: primary screen, population patch clamp on CHO cells stably expressing hERG).
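Further: peak tail current of the secondary pulse compared with the same well before compound.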

Sequence of human ether-à-go-go-related gene (hERG) potassium channel (Q12809 whole entry, looked up): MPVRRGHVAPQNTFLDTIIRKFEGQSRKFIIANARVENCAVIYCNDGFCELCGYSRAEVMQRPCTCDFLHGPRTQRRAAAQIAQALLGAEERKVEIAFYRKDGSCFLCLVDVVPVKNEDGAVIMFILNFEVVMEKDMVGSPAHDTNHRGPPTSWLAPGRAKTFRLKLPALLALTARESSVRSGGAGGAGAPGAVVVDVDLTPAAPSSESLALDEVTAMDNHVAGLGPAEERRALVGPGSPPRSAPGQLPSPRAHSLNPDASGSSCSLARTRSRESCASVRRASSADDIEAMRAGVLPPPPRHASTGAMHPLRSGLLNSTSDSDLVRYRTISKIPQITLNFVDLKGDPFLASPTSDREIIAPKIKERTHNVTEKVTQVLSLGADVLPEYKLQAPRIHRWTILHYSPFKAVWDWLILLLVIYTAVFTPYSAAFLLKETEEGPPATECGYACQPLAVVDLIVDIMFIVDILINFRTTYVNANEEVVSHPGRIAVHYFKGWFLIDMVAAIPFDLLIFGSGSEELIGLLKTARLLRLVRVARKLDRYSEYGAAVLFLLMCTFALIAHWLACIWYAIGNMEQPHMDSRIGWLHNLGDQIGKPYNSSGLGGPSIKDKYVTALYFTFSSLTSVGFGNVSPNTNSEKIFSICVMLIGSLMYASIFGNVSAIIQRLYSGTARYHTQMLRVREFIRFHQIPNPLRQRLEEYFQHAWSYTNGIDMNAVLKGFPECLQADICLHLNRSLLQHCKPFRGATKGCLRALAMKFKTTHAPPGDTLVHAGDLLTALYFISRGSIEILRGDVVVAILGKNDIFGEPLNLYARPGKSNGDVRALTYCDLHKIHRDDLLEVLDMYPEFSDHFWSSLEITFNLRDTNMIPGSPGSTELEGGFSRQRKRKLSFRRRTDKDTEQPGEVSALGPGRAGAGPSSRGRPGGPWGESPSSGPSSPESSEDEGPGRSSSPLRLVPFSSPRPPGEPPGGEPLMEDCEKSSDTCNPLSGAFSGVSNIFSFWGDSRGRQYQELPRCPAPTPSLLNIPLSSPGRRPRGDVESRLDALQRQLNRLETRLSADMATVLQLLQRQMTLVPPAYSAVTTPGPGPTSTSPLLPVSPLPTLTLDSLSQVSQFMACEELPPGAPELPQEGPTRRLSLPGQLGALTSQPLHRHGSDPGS

Row | SMILES | hERG current change (%, negative = inhibition) at 10uM
1 | CCn1c(C)c(Br)c(=O)c(C(=O)OC)c1-c1ccc(Cl)cc1 | 19.2%
2 | O=C(NCc1ccc2c(c1)OCO2)C1CCCN1C(=O)Nc1cccc(Cl)c1 (centres unmarked) | -25.4%
3 | O=C(Cc1cccc(C(F)(F)F)c1)Nc1ccc(S(=O)(=O)N2CCCC2)cc1 | -5.79%
4 | COc1ccc(CNC(=O)C2CCN(S(=O)(=O)N3CCCC3)CC2)c(OC)c1 | 4.62%
5 | O=C(Nc1ccc(S(=O)(=O)N2CCc3ccccc32)cc1)c1ccco1 | 0.483%
6 | CC1CCCC(NC(=O)CSC2=Nc3ccccc3C3CC=NN23)C1C (centres unmarked) | -26.5%
7 | COc1ccccc1C1CCCN1Cc1nc(-c2ccc(C)s2)oc1C (centres unmarked) | -40.4%
8 | Cc1occc(=O)c1OCc1c(F)cccc1Cl | 10.6%
9 | CC(C)Oc1ccccc1/C=N/NC(=O)C1CC1 | 7.57%
10 | COc1ccc(CCNC(=O)CSc2ccccn2)cc1OC | 17.5%
11 | CC(C)CCC(=O)N1CCC(N2CCC(C(=O)NCc3ccccn3)CC2)CC1 | 16.1%
12 | Cc1cc(C)n(-c2nc3ccccc3nc2NCCc2ccccc2)n1 | 5.83%
13 | COc1ccc2oc(C(=O)Nc3ccc(N4CCOCC4)cc3)c(C)c2c1 | -8.09%
14 | COc1ccccc1C(OC(=O)c1cccs1)C(=O)NCc1ccco1 (centres unmarked) | 10.6%
15 | COCCn1c(Sc2ccccc2)nc2c1c(=O)[nH]c(=O)n2C | -1.42%
16 | CCCN(C(=O)Cn1c(C(F)(F)F)nc2ccccc21)C1CCS(=O)(=O)C1 (centres unmarked) | 11.9%
17 | COc1ccc(CN(C)CC(=O)N(C)CC(=O)Nc2ccccc2Br)cc1F | -39.1%
18 | Cc1cccn2c(=O)c3cc(C#N)c(=NC(=O)c4ccco4)n(Cc4ccco4)c3nc12 | -55.4%
19 | CCS(=O)(=O)c1ccc2oc(Nc3cc(C)cc(C)c3)nc2c1 | -5.33%
20 | COC(=O)[C@]1(C)CCC[C@@]2(C)C3CC[C@]4(OC(C)=O)C[C@@]3(CCC21)CC4=O (some centres unmarked) | -4.32%
21 | COc1cc(/C=C/C(=O)c2ccc(NS(=O)(=O)c3ccc(C)cc3)cc2)ccc1OC(F)F | 10.3%
22 | CC(=O)Nc1cccc([N+](=O)[O-])c1 | 11.1%

Row | SMILES | hERG current change (%, negative = inhibition) at 10uM
23 | O=Cc1ccccc1-c1cn(CN2C(=O)c3ccccc3C2=O)nn1 | 3.42%
24 | CCN(CC)C(=O)c1ccc(NC(=O)c2cc(-n3cnnc3)ccc2Cl)cc1 | 11.5%
25 | CCN1C(=O)/C(=C/N(C)C)c2ccccc21 | -6.17%
26 | Cc1cc(N/N=C/c2ccc(N(C)C)cc2)c2ccccc2n1 | 12.3%
27 | COc1cccc(-n2c(-c3cccc(S(=O)(=O)N(C)C)c3)n[nH]c2=S)c1 | 8.65%
28 | Cn1c(=O)c2c(nc(Sc3nc4ccccc4n3CC(=O)N3CCCCC3)n2C)n(C)c1=O | 6.27%
29 | CCOC(=O)c1cn2nc(Oc3ccc(C(=O)OC)cc3)ccc2n1 | -8.98%
30 | CCOc1ccccc1OCC(=O)Nc1c(C)n(C)n(-c2ccccc2)c1=O | -6.05%
31 | CCC1=NN2C(=N)/C(=C\c3cccn3-c3c(C)cccc3C)C(=O)N=C2S1 | -79.4%
32 | CCOc1c(Cl)cc(C(=O)Nc2ccccc2-c2ccccc2)cc1Cl | 14.5%
33 | Cl.NCCCP(=O)(O)CCc1ccccc1 | 4.1%
34 | CCOc1cc(C(=O)N/N=C/c2ccsc2)cc(OCC)c1OCC | 1.12%
35 | COc1ccc(C(=O)NC(C)c2nnc(SCC(=O)NC3CCCCC3)n2C)cc1 (centres unmarked) | 5.98%
36 | O=C(NCCCNCCCNC(=O)c1ccc(/C=N/O)nc1)c1ccc(/C=N/O)nc1 | 7.14%
37 | N#Cc1cccc(NC(=O)COc2ccc(-n3ccnc3)cc2)c1 | -67.5%
38 | O=C(O)Cc1csc(-c2cccc(F)c2)n1 | 19.1%
39 | CN1CCCN(C(=O)c2cc(-c3ccc(Cl)c(Cl)c3Cl)nc3ccccc23)CC1.Cl | -69%
40 | COc1ccc(NC(=O)CN2c3cccc4cccc(c34)S2(=O)=O)c(OC)c1 | -1.8%
41 | Cn1ncc2c(Nc3ccc(Cl)c(Cl)c3)ncnc21 | 14.5%
42 | COc1ccc(N2C(=O)CC(Sc3ncn[nH]3)C2=O)c(OC)c1 (centres unmarked) | -3.68%
43 | CCn1ncc(C2=NOC(C(=O)Nc3ccc(C)cc3)C2)c1C (centres unmarked) | 8.96%
44 | COc1ccccc1N1C(N)=NC(N)=NC12CCCCC2.Cl | 11.4%

Row | SMILES | hERG current change (%, negative = inhibition) at 10uM
45 | CC1CCN(c2ccc3c(c2)S(=O)(=O)c2cccc(C(=O)NCc4cccc(F)c4)c2C3=O)CC1 | 7.58%
46 | Nc1cc(C(=O)O)ccc1Nc1ccccc1 | -2.6%
47 | COc1ccccc1N1CCN(C(=O)CCN2C(=O)c3cccc4cccc(c34)C2=O)CC1 | 15.5%
48 | CC(C)(C)c1nnc(NC(=O)CS(=O)(=O)Cc2ccccc2)s1 | 8.87%
49 | COc1ccc(C(=O)NNC(=O)CSc2nnc(C3CC3)n2C)cc1 | 9.42%
50 | CCCNC(=O)c1ccccc1NC(=O)C1COc2ccccc2O1 (centres unmarked) | -1.1%
51 | COc1ccc(NC(=O)CSCC(=O)OCc2cccc(OC)c2OC)cc1 | -1.87%
52 | CCOC(=O)c1c(NC(=O)c2ccc(S(=O)(=O)N3CCOCC3)cc2)sc2c1CC(C)(C)NC2(C)C | 3.39%
53 | Cc1ccc(C(=O)Nc2cccc([N+](=O)[O-])c2)cc1S(=O)(=O)Nc1cccc(C(=O)O)c1 | 9.29%
54 | CCOC(=O)Cc1csc(NC(=O)NC2(C(F)(F)F)Oc3cc(Cl)c(Cl)cc3O2)n1 | 8.69%
55 | COC(=O)c1nn(-c2cccc(C(F)(F)F)c2)c(=O)cc1Sc1ccccn1 | -13.3%
56 | COc1ccc(/C=C/C(=O)NCC(=O)n2nc(C)cc2C)cc1 | 7.91%
57 | Cc1ccccc1SCCNC(=O)CCc1ccccc1 | -4.62%
58 | CCc1ccc(C(=O)NNc2ccc(F)cc2)cc1 | 14.2%
59 | CCOC(=O)c1ccc(NC(=O)CSc2nnnn2CCCO)cc1 | -14.3%
60 | O=C(COc1ccccc1[N+](=O)[O-])N/N=C/C=C/c1ccco1 | 3.17%
61 | COc1ccc(C)cc1Nc1cc(C)nc2nc(C)nn12 | -16.3%
62 | C=CCn1c(COC)nnc1SCC(=O)c1ccc(F)cc1 | 3.25%
63 | N=c1c(C(=O)NCc2ccco2)cc2c(=O)n3ccccc3nc2n1Cc1ccc(Cl)cc1 | -77.1%
64 | CN1CCN(c2ccc(NC(=O)c3ccc(C#N)cc3F)cc2Cl)CC1 | -53.7%
65 | COc1ccc([N+](=O)[O-])cc1/C=N/NC(=O)Cc1ccccc1 | 6.01%
66 | COc1ccc(/C=C/c2nc3cc(-c4ccccc4)ccc3o2)cc1O | 9.02%

Row | SMILES | hERG current change (%, negative = inhibition) at 10uM
67 | CC(C)/C=C/CN1CCC(Oc2ccc(C(=O)N3CCCC3)cc2)CC1 | -35.3%
68 | NC(=O)c1cn(-c2ccccc2)nc1-c1cc2ccccc2oc1=O | -18.4%
69 | CCN1C(=O)[C@@H]2[C@@H](c3ccc(-c4ccc(C(C)=O)cc4)cc3)N3CCC[C@@]3(C(=O)OC)[C@@H]2C1=O.O=C(O)C(F)(F)F | -29.8%
70 | N/C(=N\OC(=O)c1cccc(F)c1)c1cccc([N+](=O)[O-])c1 | 24.1%
71 | COC(=O)c1cccc(NC(=O)C23CC4CC(C2)CC(n2cncn2)(C4)C3)c1 | -25.4%
72 | CCOC(=O)CNC(=O)C(CO)NC(=O)OCc1ccccc1 (centres unmarked) (Cbz-[ξS]-Gly-OEt) | 6.84%
73 | CCCNC(=O)c1ccc(N2CCC3(CC2)CC(c2cccc(Br)c2)=NO3)c(NC(=O)c2ccc(Cl)c([N+](=O)[O-])c2)c1 | 4.46%
74 | CCCCNC(=O)c1cn(-c2ccc(OCC)cc2)c(=O)c2cc(OC)c(OC)cc12 | -5.2%
75 | O=C(O)c1ccc(N/N=C/c2ccc(-c3ccc(Br)cc3)o2)cc1 | -0.136%
76 | Cc1cc(OCC(=O)NCC2CCC(C(=O)O)CC2)c2c3c(c(=O)oc2c1)CCC3 (centres unmarked) | 3.2%
77 | COc1ccc(/C=N/NC(=O)CN2CCS(=O)(=O)CC2)cc1 | -2.02%
78 | O=C(CSc1ncnc2c1cnn2-c1ccc(F)cc1)NC1CCCC1 | 11.8%
79 | CCCNC(=O)C(Cc1ccc(Br)cc1)NC(=O)c1ccc(C#N)cc1 (centres unmarked) | -3.74%
80 | CN(CC(=O)NCc1cccs1)S(=O)(=O)c1cccc2nsnc12 | 0.981%
81 | O=C(NC1CCS(=O)(=O)C1)Oc1ccccc1 (centres unmarked) | 9.26%
82 | CCOC(=O)c1ccc(NC(=O)CC2C(=O)N(c3ccc(F)cc3)C(=O)N2CCCOC)cc1 (centres unmarked) | -6.74%
83 | CCOc1ccc(C(C#N)N2CCOCC2)cc1OC (centres unmarked) | 8.9%
84 | O=C(O)c1cccc(NC(=S)NC(=O)C(c2ccccc2)c2ccccc2)c1 | -11.2%
85 | Cl.O=C(NN1CCN(Cc2ccccc2Cl)CC1)c1ccc(Br)cc1 | 18.3%
86 | COc1ccccc1N1CCN(Cc2cc(OC)c3c(c2)OCO3)CC1 | -8.69%
